Results: the supplement of paper PMC9446081
The whole screen tested about 39,000 compounds, of which about 220 (0.56%) showed activity. This is one part of the list.

Test system: Escherichia coli K-12 BW25113
Test: relative growth (OD600 normalised to plate interquartile mean) (fraction); higher = less growth inhibition, active = 0.2 or less
Conditions: 50 µM; LB; incubation time: overnight (16-24 h)
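Also: static incubation at 37 °C against the wild-type strain, values averaged over two biological replicates.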

SMILES	relative growth
COC1C(=O)C2(C)C(OC)CC3OCC3(OC(C)=O)C2C(OC(=O)c2ccccc2)C2(O)CC(OC(=O)C(O)C(NC(=O)OC(C)(C)C)c3ccccc3)C(C)=C1C2(C)C (stereo unspecified)	inactive: 0.892
CCCCCCCCCC(=O)N[C@H]1[C@H](Oc2c3cc4cc2Oc2ccc(cc2Cl)[C@@H](O[C@@H]2O[C@H](CO)[C@@H](O)[C@H](O)[C@H]2NC(C)=O)[C@@H]2NC(=O)[C@H](NC(=O)[C@@H]4NC(=O)[C@H]4NC(=O)[C@@H](Cc5ccc(c(Cl)c5)O3)NC(=O)[C@@H](N)c3ccc(O)c(c3)Oc3cc(O)cc4c3)c3ccc(O)c(c3)-c3c(O[C@H]4O[C@H](CO)[C@@H](O)[C@H](O)[C@@H]4O)cc(O)cc3[C@H](C(=O)O)NC2=O)O[C@H](CO)[C@@H](O)[C@@H]1O	inactive: 1.04
Cc1noc(C)c1S(=O)(=O)Nc1ccc2c(c1)C(=O)N([C@@H](C)CO)C[C@@H](C)[C@H](CN(C)Cc1ccc(C(F)(F)F)cc1)OCCCC[C@H](C)O2	inactive: 0.997
Cc1ccccc1S(=O)(=O)N1C[C@H](O)COC[C@@H]2O[C@@H](CC(=O)NCc3ccccc3Cl)CC[C@H]21	inactive: 0.97
COCCOC(=O)N1C(=O)[C@@]2(c3cc(C#CC4(O)CCCCCC4)ccc31)[C@H](c1ccc(OCCO)cc1)N1[C@H](c3ccccc3)[C@H](c3ccccc3)OC(=O)[C@H]1[C@@H]2C(N)=O	inactive: 1.02
COc1ccc(NC(=O)Nc2cccc3c2O[C@@H](CN(C)Cc2ccc(-c4ccccc4)cc2)[C@H](C)CN([C@@H](C)CO)C3=O)cc1	inactive: 1
C[C@H]1CN([C@@H](C)CO)C(=O)c2cc(NC(=O)Nc3ccc(F)cc3)ccc2O[C@@H]1CN(C)Cc1ccc(Oc2ccccc2)cc1	inactive: 1.03
COc1cccc(NC(=O)N(C)C[C@@H]2Oc3cc(C#CC4(O)CCCC4)ccc3S(=O)(=O)N([C@@H](C)CO)C[C@@H]2C)c1	inactive: 0.986
C[C@H]1CN([C@@H](C)CO)C(=O)Cc2cc(NC(=O)c3ccncc3)ccc2O[C@@H]1CN(C)S(=O)(=O)c1ccccc1	inactive: 0.991
CC(C)NC(=O)N(C)C[C@@H]1Oc2ccc(NS(=O)(=O)c3ccccc3)cc2C(=O)N([C@@H](C)CO)C[C@@H]1C	inactive: 0.995
O=C(C1=C[C@@H](c2ccc(C(F)(F)F)cc2)C[C@@H](OCc2ccc(CO)cc2)O1)N1CCCCCCC1	inactive: 1.06
CC(C)NC(=O)Nc1ccc2c(c1)CC(=O)N([C@H](C)CO)C[C@H](C)[C@H](CN(C)C(=O)Nc1ccc3c(c1)OCO3)O2	inactive: 1
O=C(O)/C=C/C(=O)N1CCN(C(=O)/C=C/C(=O)O)CC1	inactive: 0.977
C[C@@H]1CN([C@@H](C)CO)C(=O)c2cc(NC(=O)Nc3cccc4ccccc34)ccc2O[C@@H](C)CCCCO[C@H]1CN(C)Cc1ccc(C(=O)O)cc1	inactive: 1.03
OCc1ncc[nH]1	inactive: 0.971
C[C@@H]1CCCCO[C@H](CN(C)S(C)(=O)=O)[C@H](C)CN([C@@H](C)CO)C(=O)c2cc(N(C)C)ccc2O1	inactive: 1.04
CCC(=O)O	inactive: 1.01
COc1ccc2c3c(n(c2c1)C)[C@H](CO)N(C[C@]13CN(C1)S(=O)(=O)c1ccc(cc1)C)S(=O)(=O)c1ccc(cc1)C	inactive: 1.05
CS(=O)(=O)NCc1ccsc1	inactive: 1.04

SMILES	relative growth
COc1cccc(S(=O)(=O)N(C)C[C@@H]2Oc3ncc(C#CCN(C)C)cc3C(=O)N([C@@H](C)CO)C[C@H]2C)c1	inactive: 0.988
Cc1n[nH]c(SCC(=O)O)nc1=O	inactive: 0.988
CCCNc1nc(Nc2ccc(C#N)cc2)ncc1C#CCCCNC(=O)[C@H](C)N(C)C(=O)/C=C/CN(C)C	inactive: 0.993
Cc1noc(C)c1NC(=O)Nc1cccc2c1O[C@H](CN(C)Cc1ccc(C(=O)Nc3ccccc3N)cc1)[C@H](C)CN([C@@H](C)CO)C2=O	inactive: 1.04
C[C@@H]1CN([C@@H](C)CO)C(=O)Cc2cc(NS(=O)(=O)c3cn(C)cn3)ccc2O[C@@H]1CN(C)Cc1ccccc1	inactive: 0.996
CN1CCN(C(=O)C[C@H]2CC[C@H]3[C@@H](COC[C@H](O)CN3CC3CCCC3)O2)CC1	inactive: 0.989
Cc1cc(C)c(-c2ccc(NC(=O)[C@H](Cc3ccc(C(=O)NCCS(=O)(=O)O)cc3)c3ccc(-c4ccc(C(C)(C)C)cc4)cc3)cc2)c(C)c1	inactive: 0.937
COC(=O)C(=C1OC(=O)C(c2ccccc2)=C1O)c1ccccc1	inactive: 0.951
Cc1ccc(S(=O)(=O)N(C)C[C@@H]2Oc3c(NC(=O)c4cnccn4)cccc3C(=O)N([C@@H](C)CO)C[C@H]2C)cc1	inactive: 0.991
O=C(C[C@@H]1CC[C@@H](NC(=O)CN2CCOCC2)[C@H](CO)O1)NCc1cccc(F)c1	inactive: 0.999
O=C(CN1CCOCC1)N[C@@H]1CC[C@@H](CCNS(=O)(=O)c2ccccc2F)O[C@@H]1CO	inactive: 0.987
CCn1cc(C(=O)O)c(=O)c2ccc(C)nc21	inactive: 1.02
CC(C)CC#Cc1ccc2c(c1)O[C@H](CN(C)C(=O)Cc1ccccn1)[C@H](C)CN([C@@H](C)CO)S2(=O)=O	inactive: 1.03
O=C(NCC[C@@H]1CC[C@@H](NS(=O)(=O)c2cccc(F)c2)[C@@H](CO)O1)C1CC1	inactive: 1.02
C[C@@H]1CCCCO[C@@H](CN(C)C(=O)Nc2ccc(F)cc2)[C@@H](C)CN([C@H](C)CO)C(=O)c2cc(NC(=O)Nc3ccccc3)ccc2O1	inactive: 0.99
C[C@@H]1CCCCO[C@@H](CN(C)S(=O)(=O)c2ccc(F)cc2)[C@@H](C)CN([C@H](C)CO)C(=O)c2cc(NC(=O)CCCCCC(=O)Nc3ccccc3N)ccc2O1	inactive: 1.03
C[C@@H](O)C#Cc1ccc2c(c1)O[C@H](CN(C)C(=O)CN(C)C)[C@@H](C)CN([C@@H](C)CO)S2(=O)=O	inactive: 0.985
COc1ccccc1CNC(=O)C[C@H]1C[C@H]2c3cc(NC(=O)NC4CCCC4)ccc3O[C@H]2[C@H](CO)O1	inactive: 1.03
COC1CC(OC2C(C)OC(OC3C(C)=CCC4CC(CC5(C=CC(C)C(C6CCCCC6)O5)O4)OC(=O)C4C=C(C)C(O)C5OCC(=CC=CC3C)C45O)CC2OC)OC(C)C1O (stereo unspecified)	inactive: 0.906

SMILES	relative growth
COc1ccc(CN(C)C[C@H]2OCCCC[C@@H](C)Oc3ccc(NC(=O)c4ccccc4)cc3C(=O)N([C@H](C)CO)C[C@H]2C)cc1	inactive: 1.01
Cc1noc(C)c1NC(=O)N(C)C[C@@H]1OCCCC[C@H](C)Oc2ccc(NC(=O)c3ccccc3)cc2C(=O)N([C@@H](C)CO)C[C@H]1C	inactive: 0.964
C[C@H]1CN([C@@H](C)CO)C(=O)c2cccc(NS(=O)(=O)c3ccccc3)c2O[C@@H]1CN(C)C(=O)Nc1cccc2ccccc12	inactive: 0.99
Cc1ccc(S(=O)(=O)N(C)C[C@H]2Oc3ccc(NC(=O)Nc4ccc(C(F)(F)F)cc4)cc3CC(=O)N([C@H](C)CO)C[C@H]2C)cc1	inactive: 1.03
Cc1noc(C)c1S(=O)(=O)N(C)C[C@H]1Oc2ccc(NC(=O)Nc3ccccc3)cc2CC(=O)N([C@@H](C)CO)C[C@H]1C	inactive: 1.04
C[C@@H]1CCCCO[C@H](CN(C)C(=O)CCCN(C)C)[C@H](C)CN([C@@H](C)CO)C(=O)c2cc(NC(=O)Nc3cccc4ccccc34)ccc2O1	inactive: 0.977
COc1cccc(-c2ccc3c(c2)O[C@@H](CN(C)Cc2cncnc2)[C@H](C)CN([C@@H](C)CO)S3(=O)=O)c1	inactive: 1.02
Cc1ccc(S(=O)(=O)Nc2ccc3c(c2)C(=O)N([C@@H](C)CO)C[C@H](C)[C@@H](CN(C)C(=O)C2CCCCC2)OCCCC[C@@H](C)O3)cc1	inactive: 0.993
C[C@@H]1CN([C@H](C)CO)S(=O)(=O)c2ccc(C#CCN(C)C)cc2O[C@H]1CN(C)Cc1cccnc1	inactive: 1.01
C[C@@H]1CN([C@H](C)CO)C(=O)c2cc(NC(=O)c3ccncc3)ccc2O[C@@H](C)CCCCO[C@@H]1CN(C)CC1CCCCC1	inactive: 0.978
Cc1noc(C)c1NC(=O)Nc1ccc2c(c1)C(=O)N([C@@H](C)CO)C[C@H](C)[C@@H](CN(C)Cc1ccc(C(F)(F)F)cc1)OCCCC[C@H](C)O2	inactive: 1.01
COc1ccc2c3c([nH]c2c1)[C@@H](CO)N(C[C@]13CCN(CC1)S(=O)(=O)C)C(=O)Nc1ccc(cc1)F	inactive: 1.02
C[C@@H]1CN([C@H](C)CO)C(=O)c2cc(NC(=O)Nc3cccc4ccccc34)ccc2O[C@@H](C)CCCCO[C@H]1CN(C)C(=O)c1ccccc1	inactive: 1.04
O=C(C[C@@H]1C[C@@H]2c3cc(NS(=O)(=O)c4ccc(F)cc4)ccc3O[C@@H]2[C@@H](CO)O1)NCc1cccc(F)c1	inactive: 1
C[C@H]1CN([C@@H](C)CO)C(=O)c2cccc(NC(=O)c3cnccn3)c2O[C@@H]1CN(C)Cc1ccccc1	inactive: 0.994
C[C@@H]1CCCCO[C@@H](CN(C)C(=O)Nc2ccc(C(F)(F)F)cc2)[C@@H](C)CN([C@@H](C)CO)C(=O)c2cc(NC(=O)C3CCCCC3)ccc2O1	inactive: 1.02
O=C(O)c1cc(O)c2c(c1)C(C1c3cc(C(=O)O)cc(O)c3C(=O)c3c(OC4OC(CO)C(O)C(O)C4O)cccc31)c1cccc(OC3OC(CO)C(O)C(O)C3O)c1C2=O (stereo unspecified)	inactive: 1.01
COc1ccc2cc(CCC(C)=O)ccc2c1	inactive: 1.18
